Measurements from PubChem BioAssay AID504884 (Broad Institute, 2011).
In all, about 360,000 compounds went through this assay and about 230 (0.064%) were called active. This list was built around the results that the source calls inconclusive (neither active nor inactive); the mix of calls is not that of the screen. Cut-off read from the data, not from the text of the source: active = activity above about 50% (passing the limit was not always enough); inconclusive = no clear call, values can overlap the other calls.

tested on: DNA topoisomerase I (Yersinia pestis CO92); experiment: Yersinia pestis topoisomerase I inhibitors, primary screen, biochemical, cleavage product accumulation, plate reader, single point (AID 504884); conditions: Y. pestis Topo-I cleavage product accumulation, at 10 µM, active compounds read high

SMILES | activity
O=C(NNC(=O)c1ccc(NC(=O)c2ccccc2)cc1)c1ccc(F)cc1 | inactive: 1.43%
C#CCOCCOCCOCCNc1nc(N2CCN(C(=O)CCCCCCCCCCNC(=O)[C@@H](CCSC)n3cc(CCO)nn3)CC2)nc(N2CCN(C(=O)CCCCCCCCCCNC(=O)[C@H](CCCN=C(N)N)n3cc(C[C@@H](C)CC)nn3)CC2)n1 | inconclusive: 52.9%
CCOc1ccc(/C=N/n2nnnc2N)cc1O | inactive: 0.8%
O=C(Oc1ccc2ccccc2c1Cl)N1CCCC1 | inconclusive: 77.2%
Fc1ccc(Nc2nc(Oc3ccccc3F)nc(N3CCCC3)n2)cc1 | inactive: -12.9%
Cn1c(NCc2ccco2)nc2ccccc21 | inactive: 2.51%
Cc1cc(SCc2cc(=O)[nH]c3ccccc23)nc2ccccc12 | inactive: 3.12%
CSc1ccccc1NC(=O)COC(=O)c1ccccc1Cc1ccccc1 | active: 61.9%
CN(C(=O)COC(=O)c1sc2ccccc2c1Cl)C1CCCCC1 | inconclusive: 52.1%
CCOC(=O)c1c(C)[nH]c(C)c1C(=O)COC(=O)/C=C/c1ccco1 | inactive: -2.79%
COC(=O)c1cccc(OCC(O)Cn2cnc3cc(C)c(C)cc32)c1 (stereo not given) | inconclusive: 258%
COC(=O)CSc1nc(SCc2ccc(C)cc2)nc2c1CCCC2 | active: 58.2%
CCOC(=O)c1cc(-c2ccccc2C)nn1CC1CC(c2ccc(OC)cc2)=NO1 (stereo not given) | inconclusive: 51.9%
Cc1ccc(S(=O)(=O)N2CCC(C(=O)NCCC3=CCCCC3)CC2)cc1C | active: 51.1%
CN(CC(=O)Nc1ccccc1Oc1ccccc1)Cc1ccccc1F | active: 59.8%
Cc1nc(N(C)C)c2sc(=S)n(C)c2n1 | inactive: 6.1%
COC(=O)C(CC(=O)c1ccc(Cl)cc1)c1ccc(C(C)C)cc1 (stereo not given) | inconclusive: 54.1%
CCCCCCCC(=O)OCC(COC(=O)CCCCCCC)OC(=O)CCCCCCC | inconclusive: 53.8%
c1ccc(-c2ncc3ccccn23)cc1 | inactive: -3.07%
CC(=O)c1ccccc1NC(=O)COC(=O)CCC1CCCC1 | inconclusive: 51%
Cc1c(C(=O)OCC(=O)N(CC(C)C)c2c(N)n(Cc3ccccc3)c(=O)[nH]c2=O)oc2ccccc12 | active: 82%
Cc1ccc(C(=O)NCC(=O)OC(C)C(=O)Nc2ccc(N(C)C)cc2)cc1C (stereo not given) | inconclusive: 82.4%
O=C(CNc1ccc2ccccc2c1)N/N=C/c1ccc(C(=O)O)cc1 | inactive: -0.292%
Cc1ccc(OC/C(=N\O)C(C)(C)C)c([N+](=O)[O-])c1 | inconclusive: 60.8%
N#CC(c1ccc(F)cc1)c1ccc(C(=O)c2ccc(F)cc2)cc1 (stereo not given) | inconclusive: 52.3%
